Data published in PubChem BioAssay AID2675 (National Center for Advancing Translational Sciences (NCATS), 2010).
In all, about 280,000 compounds went through this assay and about 100 (0.036%) were called active. Inconclusive results, whose numbers are uncertain, are shown with a selection of clear calls. Calls follow the shape of the dose curve; as a rule, active = well fitted inhibition curve with a large enough effect in the signal ratio, with a control signal flat (not every such curve was filed as active); inconclusive = small, poorly fitted or top-dose-only effect, or effect the other way, or a change in a side signal; inactive = no such curve, though single readings can be large or run the other way; the % refers to the signal ratio. Potencies beside an inconclusive call are fits to weak or partial responses and may not hold up. A note “side channel” means that the fit belongs to a control or component signal, not to the main read-out.

Molecular target: Muscleblind-like protein 1 (Homo sapiens) (UniProt Q9NR56)
Test: qHTS Assay for Inhibitors of MBNL1-poly(CUG) RNA binding
Settings: TR-FRET MBNL1-His/biotin-(CUG)12 binding, 665/545 ratio; series mostly up to 57.5 µM
In short: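 MBNL1-His + Biotin-(CUG)12, cpd titration 92 nM–58 uM; Tb anti-His Ab 0.055 ng/ul, SA-XL665 5 nM (final); 60 min RT; ratiometric 665/545 nm, Ex 340 nm; normalized to buffer and full-complex controls.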
Potency is read from the fitted curve at half-maximal effect; tags tell the direction and shape of the fitted curve or compound fluorescence and quenching.

Sequence of UniProt Q9NR56 (Q9NR56 whole entry, looked up): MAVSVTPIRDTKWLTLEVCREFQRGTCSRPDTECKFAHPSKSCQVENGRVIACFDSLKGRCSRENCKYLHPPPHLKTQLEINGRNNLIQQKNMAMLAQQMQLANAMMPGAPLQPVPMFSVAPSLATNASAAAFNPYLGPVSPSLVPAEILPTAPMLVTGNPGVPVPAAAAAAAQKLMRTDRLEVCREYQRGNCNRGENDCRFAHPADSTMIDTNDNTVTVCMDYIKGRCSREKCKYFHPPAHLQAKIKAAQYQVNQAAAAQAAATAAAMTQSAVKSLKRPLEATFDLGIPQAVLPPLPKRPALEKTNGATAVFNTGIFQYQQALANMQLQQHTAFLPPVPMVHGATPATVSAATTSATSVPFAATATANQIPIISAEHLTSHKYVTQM

Row | Structure (SMILES) | Potency
1 | Cc1ccc(C2CC(=O)NC(SCCC(C)C)=C2C#N)cc1 (stereo not drawn) | inactive
2 | O=C(NCC1CCCO1)c1ccc2c3n(nc2c1)-c1ccccc1CO3 (stereo not drawn) | inconclusive: 14.1 µM [quencher, side channel, partial curve]
3 | Fc1c(F)c(F)c(/C=N/NC(=S)Nc2cccnc2)c(F)c1F | inactive
4 | CCC(C)c1ccc(S(=O)(=O)Nc2cccnc2)cc1 (stereo not drawn) | inactive
5 | COC(=O)c1sc2cnccc2c1N | inconclusive: 12.6 µM [quencher, side channel, partial curve]
6 | CC(=O)c1ccc(NC(=O)COC(=O)c2ccccc2Nc2ccccc2)cc1 | inconclusive: 0.355 µM [fluorescent, side channel, partial curve]
7 | CCOC(=O)Nc1ccc(OC)c([N+](=O)[O-])c1 | inconclusive: 22.4 µM [quencher, side channel, partial curve]
8 | C(=C1/CCCC2=C1Nc1ncnn1C2c1ccccc1)/c1ccccc1 (stereo not drawn) | inconclusive: 28.2 µM [quencher, side channel, single point]
9 | O=C1N/C(=N\N=C\c2cccs2)SC1Cc1cccc(Cl)c1Cl (stereo not drawn) | inactive
10 | COc1ccc(-c2cc3ccc(O)cc3oc2=O)cc1 | inconclusive: 22.4 µM [quencher, side channel, partial curve]
11 | OCC1(CCc2ccccc2)CCN(Cc2ccccc2Cl)CC1 | inconclusive: 79.4 µM [inhibitor, single point]
12 | Cc1ccc(NC(=O)CCSc2nnnn2-c2ccc3c(c2)OCO3)cc1C | inactive
13 | CCN(CC)C(=O)Oc1ccc(Br)cc1C(=O)Nc1ccc(F)cc1F | inactive
14 | CC(/C=C/c1ccc2c(c1)OCO2)=N\NC(=O)c1cccc([N+](=O)[O-])c1 | inconclusive: 3.16 µM [quencher, side channel, partial curve]
15 | CCOc1cc2[nH]c(=S)n(Cc3ccc(C(=O)NCCCOC)cc3)c(=O)c2cc1OCC | inactive
16 | Cc1ccc(NC(=O)c2cccnc2)c([N+](=O)[O-])c1 | inconclusive: 12.6 µM [quencher, side channel, partial curve]
17 | C=CCOc1ccc(C2c3c(oc4ccccc4c3=O)C(=O)N2CCCN2CCOCC2)cc1 (stereo not drawn) | inconclusive: 35.5 µM [quencher, side channel, single point]
18 | COc1cc(/C=C2/SC(=S)N(CC(=O)Nc3cccnc3)C2=O)cc(OC)c1OC | inactive
19 | Cc1cccc(CNC(=O)C2CCCN(c3nn4c(=O)cc(C)nc4s3)C2)c1 (stereo not drawn) | inactive
20 | CCOc1ccc(C2C3=C(CCCC3=O)Nc3nc(C(F)(F)F)nn32)cc1OC (stereo not drawn) | inactive
21 | CCN(CC)CCOc1ccc2c(c1)C(=NO)c1cc(OCCN(CC)CC)ccc1-2 | inconclusive: 14.1 µM [quencher, side channel, partial curve]

Row | Structure (SMILES) | Potency
22 | C#CCOCCOCCOCCNc1nc(N2CCN(C(=O)[C@H]([C@@H](C)CC)n3cc([C@@H](N)CO)nn3)CC2)nc(N2CCN(C(=O)[C@H](Cc3cc4ccccc4[nH]3)n3cc([C@@H](N)C(C)CC)nn3)CC2)n1 (stereo partly drawn) | inconclusive: 100 µM [inhibitor, single point]
23 | COCC(=O)NC1CCN(CC(=O)Nc2ccccc2[N+](=O)[O-])CC1 | inconclusive: 15.8 µM [quencher, partial curve]
24 | Cc1ccc(CN2CCC(c3nc4ccc(Cl)cc4[nH]3)CC2)cc1 | inactive
25 | O=C(Nc1cccc([N+](=O)[O-])c1)c1cnccn1 | inconclusive: 2.82 µM [quencher, side channel, full curve]
26 | N#Cc1cnn2c(N)c(-c3ccc(Cl)cc3)cnc12 | inactive
27 | Cc1ccccc1C(=O)Nc1cccc(-c2ccc3nncn3n2)c1 | inconclusive: 28.2 µM [quencher, side channel, single point]
28 | CCOc1ccc2[nH]c(=O)c(C(c3nnnn3Cc3ccco3)N3CCN(C)CC3)cc2c1 (stereo not drawn) | inconclusive: 6.31 µM [quencher, side channel, partial curve]
29 | CCCCN(C)C(=O)c1cc2cc([N+](=O)[O-])cc(OC)c2oc1=O | inconclusive: 8.91 µM [quencher, side channel, partial curve]
30 | O=C(COc1ccc(F)cc1)N(c1ccccn1)C1CCCCC1 | inconclusive: 12.6 µM [fluorescent, side channel, single point]
31 | CCOP(=O)(OCC)/C(C#N)=C/c1c[nH]c2ccccc12 | inconclusive: 10 µM [quencher, side channel, partial curve]
32 | C=CCSc1nnc2c(n1)[nH]c1c(C)cccc12 | inconclusive: 7.94 µM [quencher, side channel, partial curve]
33 | O=C(O)C1C2CCC(O2)C1C(=O)Nc1cnn(Cc2ccccc2)c1 (stereo not drawn) | inactive
34 | O=C(NCCc1csc(-c2ccccc2)n1)c1c(F)cccc1Cl | inactive
35 | COc1cc(NC(=O)c2ccc(F)cc2)ccc1NC(=O)c1cc2ccccc2o1 | inconclusive: 0.708 µM [fluorescent, side channel, single point]
36 | c1ccc(C2CCC(N3CCN(c4ccccc4)CC3)CC2)cc1 (stereo not drawn) | inconclusive: 100 µM [inhibitor, single point]
37 | CCCCN(CCCC)C(=O)/C=C/c1cccc([N+](=O)[O-])c1 | inconclusive: 25.1 µM [quencher, side channel, single point]
38 | Nc1nnc(SCCCC(=O)c2ccc(Br)cc2)s1 | inconclusive: 3.55 µM [fluorescent, side channel, partial curve, poor fit]
39 | CC(C(=O)N1CCN(c2ccccc2F)CC1)c1ccc([N+](=O)[O-])cc1 (stereo not drawn) | inconclusive: 12.6 µM [quencher, side channel, partial curve]
40 | CN(CC(=O)Nc1cccc([N+](=O)[O-])c1)S(=O)(=O)c1ccccc1 | inconclusive: 12.6 µM [quencher, side channel, partial curve]
41 | O=C(O)CNC(=O)c1ccc(Sc2ccccc2)c([N+](=O)[O-])c1 | inconclusive: 15.8 µM [quencher, partial curve]
42 | COc1ccc(CC(=O)N/N=C/c2cccn2-c2ccc([N+](=O)[O-])cc2)cc1OC | inconclusive: 8.91 µM [quencher, side channel, partial curve]

Row | Structure (SMILES) | Potency
43 | O=C(CSc1nnc2c(n1)[nH]c1ccc(F)cc12)NC1CC1 | inconclusive: 3.55 µM [quencher, side channel, partial curve]
44 | COc1ccc(C2C(C(C)=O)=C(O)C(=O)N2c2cccnc2)c(OC)c1 (stereo not drawn) | inconclusive: 22.4 µM [quencher, side channel, single point]
45 | O=C(O)CCCC(=O)Nc1ccc(OCc2nc3ccccc3s2)cc1 | inactive
46 | Cc1ccccc1-c1cc2c(nn1)-c1ccccc1C2=O | inconclusive: 1.78 µM [quencher, side channel, full curve]
47 | O=C(Nc1ccc(S(=O)(=O)N2CCCC2)cc1)c1ccc(CN2CCc3ccccc3C2)cc1 | inconclusive: 0.1 µM [fluorescent, side channel, full curve, poor fit]
48 | O=C(O)CCn1cc(/C=C2\SC(=S)NC2=O)c(-c2ccccc2)n1 | inconclusive: 14.1 µM [quencher, side channel, partial curve]
49 | COc1ccc(CCNC(=S)NC(=O)c2c(-c3ccccc3Cl)noc2C)cc1OC | inactive
50 | Cc1c(N=C2NN=C(c3c[nH]c4ccccc34)CS2)c(=O)n(-c2ccccc2)n1C | inconclusive: 28.2 µM [quencher, side channel, partial curve]
51 | CC(=O)NS(=O)(=O)c1ccc(N=c2ssc3c2-c2cc(C)c(C)cc2NC3(C)C)cc1 | inconclusive: 28.2 µM [quencher, side channel, single point]
52 | O=C(Cc1ccc(Br)cc1)Nc1ccc(S(=O)(=O)Nc2ncccn2)cc1 | inactive
53 | COc1ccccc1N1CCN(c2cc(=O)n(Cc3ccc(F)cc3)c(=O)[nH]2)CC1 | inactive
54 | Cn1cnc([N+](=O)[O-])c1Oc1cccc2ccccc12 | inactive
55 | Clc1cnc(N/N=C/c2ccncc2)c(Cl)c1 | inconclusive: 8.91 µM [quencher, side channel, partial curve]
56 | S=C(Sc1ccc(Cl)cc1)Sc1ccc(Cl)cc1 | inactive
57 | CC(C)NS(=O)(=O)c1cccc2nsnc12 | inconclusive: 12.6 µM [quencher, side channel, partial curve]
58 | Nc1c(C(=O)O)ccc2c1C(=O)c1ccccc1C2=O | inconclusive: 25.1 µM [quencher, side channel, partial curve]
59 | CC(=O)c1sc2nc(-c3cccs3)ccc2c1N | inconclusive: 14.1 µM [quencher, side channel, partial curve]
60 | CCc1ccc(/C=C2/C(=O)N(c3ccccc3)C(=S)N2CC(=O)OC)s1 | inconclusive: 3.55 µM [fluorescent, side channel, partial curve]
61 | C=CCn1c(O)c(N=NC(=O)CNC(=O)c2ccncc2)c2ccccc21 | inconclusive: 12.6 µM [quencher, partial curve]
62 | O=[N+]([O-])c1ccc(Cl)c(NC2=NCCCCC2)c1 | inconclusive: 25.1 µM [quencher, side channel, partial curve]
63 | CCOC(=O)CN1N=C(/C=C/c2ccc(OC)cc2)CCC1=O | inconclusive: 14.1 µM [quencher, side channel, partial curve]
